According to US20100113379A1, “cAMP DEPENDENT INDUCTION OF AUTOPHAGY” (priority 2007, published 2010):
No end group written: not given here.

Assays:
[1] = test system: COS-7 cells transfected with EGFP-HDQ74; assay: EGFP-HDQ74 aggregate formation in transfected COS-7 cells (odds ratio); settings: for mutant huntingtin (EGFP-HDQ74) aggregation: 48 h post-transfection, FIG. 9
[2] = test system: M. bovis BCGlux; assay type: cell-based; settings: FIG. 22; for numbers of mycobacteria in primary macrophages: human macrophages, M. bovis BCGlux, 2 h, 0.2 μM rapamycin, 10 μM calpastatin, 500 μM 2′5′ ddA, 50 μM carbamazepine
[3] = test system: Atg5; assay: Atg5 levels and cleavage in treated cells; assay type: cell-based; settings: for full-length Atg5 levels: cells treated with thapsigargin or calpastatin
Description: (§1) Cell pellets were lysed on ice in Laemmli buffer (62.5 mM Tris-HCl pH 6.8, 5% β-mercaptoethanol, 10% glycerol, and 0.01% bromophenol blue) for 30 min in the presence of protease inhibitors (Roche Diagnostics). Samples were subjected to SDS-polyacrylamide gel electrophoresis and proteins were transferred to nitrocellulose membranes (Amersham Pharmacia Biotech). Primary antibodies used include anti-EGFP (8362-1, Clontech), anti-HA (12CA15, Covance), anti-mTOR (2972), anti-Phospho-mTOR (Ser2448) (2971), anti-p70 S6 Kinase (9202), anti Phospho-p70 S6 Kinase (Thr389) (9206), anti-4E-BP1 (9452), anti-Phospho-4E-BP1 (Thr37/46) (9459), all from Cell Signaling Technology, anti-calpain small subunit (μ- or m-calpain) (MAB3083, Chemicon), anti-calpain 1 (MAB3104, Chemicon), anti-calpain 2 domain III (208755, Calbiochem), anti-Gsα (06-237, Upstate), anti-LC3 (NB100-2220, Novus), anti-LC3, anti-actin (A2066, Sigma) and anti-tubulin (Clone DM 1A, Sigma). Blots were probed with anti-mouse or anti-rabbit IgG-HRP (Amersham) and visualised using ECL or ECL Plus detection kit (Amersham).

[4] = test system: Flies expressing a mutant huntingtin fragment with 120Q in the photoreceptors; assay: Fly HD model: photoreceptor degeneration, rhabdomere counts by pseudopupil technique; assay type: in vivo, Drosophila; settings: in fly food; 1.87 mM verapamil hydrochloride, 500 μM clonidine, nimodipine, tyramine or loperamide; 2 days after eclosion; DMSO control; FIG. 21
Description: Fly culture and crosses were carried out at 25° C. and at 70% humidity, using Instant Fly Food (Philip Harris, Ashby de la Zouch, UK) unless otherwise stated. Flies were raised with a 12 h light: 12 h dark cycle.
For pseudopupil analysis, heads were removed from adult male flies and mounted on microscope slides using nail polish. The ommatidia were analyzed using a 100× objective and bright field optics with bright illumination, with the observer blinded to the identity of the flies. Rhabdomere counts were carried out by analyzing 15 ommatidia per fly with around 20 flies per experiment for each treatment. The experiment was repeated on three independent occasions. […] A paired Student's t-test was used to compare the three experiment-average scores for each treatment.

[5] = test system: SK-N-SH cells transfected with EGFP-HDQ74; assay: EGFP-HDQ74 aggregate formation and cell death in transfected SK-N-SH cells (odds ratio); settings: 48 h, 1 μM PACAP or 200 μM NF449, FIG. 18
[6] = test system: calpain; assay: Thapsigargin-induced calpain activation; assay type: cell-based
[7] = test system: L-type Ca^2+ channel; settings: dose-dependent manner; reference 33; cited from earlier work
[8] = test system: LC3-II; assay: LC3-II levels (cell line not stated); assay type: cell-based; settings: NF449; cell line and concentration not stated
Description: When autophagy is induced, the microtubule-associated protein 1 light chain 3 (LC3) is processed post-translationally into LC3-I, and then to LC3-II, which associates with autophagosome membranes (5). Quantification of the number of cells with LC3-positive vesicles or LC3-II levels (versus actin) allows for a specific and sensitive assessment of autophagosome number in large numbers of cells (17).
as §1, with “Blots were probed with anti-mouse or anti-rabbit IgG-HRP (Amersham) and visualised using ECL or ECL Plus detection kit (Amersham).” left out

C[C@H]1O[C@@H](n2cnc3c(N)ncnc32)C[C@@H]1O [2′5′ddA, 2′5′-dideoxyadenosine]
enhanced EGFP-HDQ74 aggregation mediated by overexpression of wild-type or constitutive active m-calpain ([1]; 500 μM 2′5′ ddA, 48 h, FIG. 20): decreased
numbers of mycobacteria in primary macrophages [2]: reduced

calpastatin
full-length Atg5 levels [3]: no increase
numbers of mycobacteria in primary macrophages [2]: reduced

Clc1cccc(Cl)c1NC1=NCCN1 [clonidine, N-(2,6-dichlorophenyl)-4,5-dihydro-1H-imidazol-2-amine]
neurodegeneration in HD flies (decrease in number of visible rhabdomeres) [4]: attenuated

CO[C@@H]1[C@@H]2OP(=O)(O)OC[C@H]2O[C@H]1n1c(Sc2ccc(Cl)cc2)nc2c(N)ncnc21 [8-CPT-2-Me-cAMP, 8-(4-Chlorophenylthio)-2′-0-methyl-cAMP]
8-CPT-2-Me-cAMP effect on huntingtin aggregation in presence of dominant-negative Rap2B ([1]; 10 μM 8-CPT-2Me-cAMP, 48 h, co-transfected dominant-negative Rap2B, FIG. 13): abrogated
mutant huntingtin (EGFP-HDQ74) aggregation ([1]; 10 μM): enhanced

NCCc1ccc(O)cc1 [tyramine, 4-hydroxy-phenethylamine]
neurodegeneration in HD flies (decrease in number of visible rhabdomeres) [4]: attenuated

PACAP: pituitary adenylate cyclase-activating polypeptide, natural ligand activating Gsα; PACAP 38, Ovine from Calbiochem (HSDGIFTDSYSRYRKQMAVKKYLAAVLGKRYKQRVKNK; ends and bridges not checked; UniProt P16613 132-169, looked up)
EGFP-HDQ74 aggregation [5]: enhanced

Nc1cc(N2CCCCC2)nc(N)[n+]1[O-] [minoxidil, 6-(1-Piperidinyl)-2,4-pyrimidinediamine 3-oxide]
thapsigargin-induced calpain activation [6]: decrease
whole-cell L-type Ca2+ channel currents [7]: decreases

O=C(Nc1cc(C(=O)Nc2ccc(S(=O)(=O)O)cc2S(=O)(=O)O)cc(C(=O)Nc2ccc(S(=O)(=O)O)cc2S(=O)(=O)O)c1)Nc1cc(C(=O)Nc2ccc(S(=O)(=O)O)cc2S(=O)(=O)O)cc(C(=O)Nc2ccc(S(=O)(=O)O)cc2S(=O)(=O)O)c1 [NF449, 4,4′,4″, 4′″-(carbonylbis(imino-5,1,3-benzenetriylbis(carbonylimino)))tetrakis-benzene-1,3-disulfonic acid]
EGFP-HDQ74 aggregation [5]: decreased
LC3-II levels [8]: increased

Cn1cnc(N)c2ncnc1-2 [3-MA, 3-methyladenine]
effect of rapamycin on mycobacteria in presence of 3-MA ([2]; 0.2 μM rapamycin with 10 mM 3MA): blocked

C/C=C(/C)C(=O)O[C@H]1C(C)=C2[C@H]([C@@H]1OC(=O)CCCCCCC)[C@@](C)(OC(C)=O)C[C@H](OC(=O)CCC)[C@@]1(O)[C@H]2OC(=O)[C@@]1(C)O [thapsigargin]
Atg5 cleavage products ([3]; cells treated with thapsigargin): no obvious cleavage products
full-length Atg5 levels [3]: no reduction

O=C(Nc1ncnc2c1ncn2[C@@H]1O[C@@H]2COP(=O)(O)O[C@H]2[C@H]1O)c1ccccc1 [6-Bnz-cAMP, N^6Benzoyl-cAMP]
mutant huntingtin (EGFP-HDQ74) aggregation ([1]; 10 μM): no effects

Cc1ccc(S(=O)(=O)NC(=O)NN2CCCCCC2)cc1 [tolazamide, 3-azepan-1-yl-1-(4-methylphenyl)sulfonyl-urea]
clearance of autophagy substrates (EGFP-HDQ74 aggregates) ([1]; 10 μM, 48 hours post transfection, DMSO control, FIG. 15): slow

CN(C)C(=O)C(CCN1CCC(O)(c2ccc(Cl)cc2)CC1)(c1ccccc1)c1ccccc1 [loperamide]
neurodegeneration in HD flies (decrease in number of visible rhabdomeres) [4]: attenuated
